# Hit rate of the full screen: of about 310,000 compounds, about 18,000 (5.8%) were called active. The shares of active, inactive and inconclusive entries below differ from those in the screen. Calls follow the shape of the dose curve; as a rule, active = well fitted inhibition curve with a large enough effect; inconclusive = small, poorly fitted or top-dose-only effect, or another doubt; inactive = no such curve, though single readings can be large or run the other way. No potency is given beside an inconclusive call; the fits are too rough.
# Assay: Primary qHTS for delayed death inhibitors of the malarial parasite plastid, 48 hour incubation
# Conditions: P. falciparum luciferase growth in erythrocytes; series mostly up to 28.7 µM; activity change, negative = inhibition: at the top concentration
# Summary of the method: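 Luciferase-expressing P. falciparum in infected erythrocytes (2% hematocrit, 0.1% parasitemia final) in RPMI 1640/0.5% Albumax were exposed to compound for 48 hours at 37 C, 5% CO2; growth read as luminescence.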
# % is scaled to controls: 0 for no effect and ±100 for the full control effect; potency is read from the fitted curve at half-maximal effect; tags tell the direction and shape of the fitted curve.
SMILES,Potency,"activity change, negative = inhibition"
Cc1ccc(C(=O)Nc2cccnc2)cc1S(=O)(=O)N1CCCC1,"inconclusive [inhibitor, single point]",
COc1ccc([C@@H]2[C@@H]3C(=O)N(C(C)(C)C)C(=O)[C@@H]3[C@]3(CC(C)C)C(=O)N(c4cccc(F)c4)C(=O)N23)cc1,"inconclusive [inhibitor, partial curve, poor fit]",
Cc1ccc(-n2c(C)nnc2SCC(=O)N2CCc3ccccc3C2)cc1C,"inconclusive [inhibitor, full curve, poor fit]",
O=C(CNC(=O)c1sc2ccccc2c1Cl)NC1CC1,,inactive: 117%
S=C(NCCc1ccccc1)Nc1ccc(Br)cc1,,inactive: 17.7%
O=C1C=C(/C=C/C2C=CC=CC2)C[C@@H](c2ccc(Cl)cc2)C1 (stereo not given in full),"inconclusive [inhibitor, single point]",
CC(C)(C)Nc1nc(Oc2ccc(=O)[nH]n2)nc(N2CCOCC2)n1,,inactive: -6.29%
O=C(CCC(=O)Nc1ccc(Cl)cc1Cl)NNC(=O)Nc1ccccc1,"inconclusive [inhibitor, partial curve, poor fit]",
COC(=O)c1ccccc1-c1ccc(/C=C2\C(=O)N(c3ccccc3)N=C2c2ccccc2)o1,"inconclusive [inhibitor, single point]",
COC(=O)CCC(=O)Nc1cccc(C(=O)Nc2cccc(Cl)c2)c1,"inconclusive [inhibitor, partial curve, poor fit]",
COc1cccc(CC(NC(C)=O)C(=O)NC2CCN(c3c(Cc4ccccc4)c(C)nc4ncnn34)CC2)c1 (stereo not given),active: 3.7 µM,
COC(=O)c1ccccc1S(=O)(=O)N1CCn2cccc2C1C (stereo not given),"inconclusive [inhibitor, single point]",
CCOc1ccc(-c2cc(C(=O)NN3CCN(C)CC3)c3cc(Cl)ccc3n2)cc1,active: 2.33 µM,
Cc1cccc(NC(=O)C[n+]2ccc(N(C)C)cc2)c1,"inconclusive [inhibitor, partial curve]",
COCC(=O)Nc1cc([N+](=O)[O-])ccc1C,,inactive: 4.01%
CCN(Cc1ccc2c(c1)OCCO2)C(=O)CSc1nc(C)nc2sc(C)c(C)c12,"inconclusive [inhibitor, single point]",
Cc1ccc(NC(=O)c2ccccc2-c2ccccc2C(=O)O)cc1,,inactive: -2.54%
O=c1[nH]cc(O)c(=O)[nH]1,,inactive: 10.4%
CC(C)N1CCN(Cc2ccc(OC3CCCC3)cc2)CC1CCO (stereo not given),,inactive: -13%
COc1ccccc1C(=O)NC(CCSC)C(=O)NCCCSc1ccccc1 (stereo not given),"inconclusive [inhibitor, single point]",
CCCN1CCN(C(=O)CN2C(=O)COc3ccc(S(=O)(=O)N(CC)CC)cc32)CC1,,inactive: -2.34%
O=C(O)c1cccc(N2C(=O)C3C4C=CC(C4=C(c4ccccc4)c4ccccc4)C3C2=O)c1 (stereo not given),"inconclusive [inhibitor, partial curve]",
O=C(CCc1nc2ccccc2c(=O)[nH]1)Nc1nnc(SCc2ccccc2)s1,,inactive: 11.5%

SMILES,Potency,"activity change, negative = inhibition"
CCOC(=O)C1=C(N)n2c(s/c(=C\c3cccs3)c2=O)=C(C(=O)OCC)C1c1cccs1 (stereo not given),"inconclusive [inhibitor, single point]",
COc1ccccc1NC(=O)Cn1nnc(-c2ccccc2NS(=O)(=O)c2ccccc2)n1,"inconclusive [inhibitor, partial curve, poor fit]",
c1ccc2c(c1)CC1CNCc3cccc(c31)S2 (stereo not given),"inconclusive [inhibitor, single point]",
CCOC(=O)c1cc2occc2n1CC(=O)N1CCCc2ccccc21,active: 9.28 µM,
CC(=O)Nc1ccc(SC[C@H](Cc2ccccc2)N2CC[C@@H](C(C)(C)C)CCC2=O)cc1,active: 1.85 µM,
CC1(C)CC(NC(=S)Nc2ccc([N+](=O)[O-])cc2)CC(C)(C)N1,"inconclusive [inhibitor, partial curve, poor fit]",
Cc1c(CCOC(=O)c2cccc([N+](=O)[O-])c2)sc[n+]1CC(=O)c1ccccc1,"inconclusive [inhibitor, single point]",
c1ccc2[nH]c(SCc3cn4ccccc4n3)nc2c1,"inconclusive [inhibitor, full curve, poor fit]",
CN(CC(=O)Nc1ccccc1Oc1ccccc1)Cc1ccccc1F,"inconclusive [inhibitor, single point]",
N#C/C(=C1\CCCN1)c1nc(-c2ccccc2)cs1,"inconclusive [inhibitor, single point]",
Cc1ccc(C)c(S(=O)(=O)N2CCN(C(=O)c3n[nH]c(=O)c4ccccc34)CC2)c1,"inconclusive [inhibitor, single point]",
COc1cc(C(=O)NCCCC2CCCC2)ccc1OC1CCN(C(C)=O)CC1,"inconclusive [inhibitor, single point]",
COC(=O)CNc1nc(-c2ccccc2F)nc2ccccc12,"inconclusive [inhibitor, partial curve]",
O=C(CN1CCC(NC(=O)c2ccccc2)CC1)NCc1ccccc1F,"inconclusive [inhibitor, single point]",
CCCCN(CC)CCNC(=O)c1cc2c(-c3ccc(Cl)cc3)nn(C)c2s1,active: 0.329 µM,
CCCCNC(=S)NNC(=O)C1=NN(c2cc(C)ccc2C)C(=O)CC1,,inactive: -11.4%
CCN(CC)CCN(Cc1cc2cc3c(cc2[nH]c1=O)OCCO3)C(=O)NC1CCCCC1,,inactive: -8.58%
C(=N\c1nc2ccccc2n1CCN1CCCCC1)/c1ccc2c(c1)OCO2,"inconclusive [inhibitor, single point]",
FC(F)Oc1ccc(-c2csc(NNC3=NCCCCC3)n2)cc1,"inconclusive [inhibitor, partial curve]",
COc1ccc(CN2C(=O)NC3(CCCCCC3)C2=O)cc1F,,inactive: 46.2%
CCCNC(=S)Nc1ccc(F)cc1F,,inactive: 13.5%
OCCC1CN(Cc2nc3c(s2)CCCC3)CCN1Cc1ccccc1 (stereo not given),"inconclusive [inhibitor, single point]",

# Source: PubChem BioAssay AID504832 (National Center for Advancing Translational Sciences (NCATS), 2011)
